The values below come from PubChem BioAssay AID1434 (Sanford-Burnham Center for Chemical Genomics, 2008).

This is one part of the list. Further columns of the screen follow, without active or inactive calls. The list favours compounds with an active or inconclusive main result.

The target in this experiment is Runt-related transcription factor 1 (Homo sapiens) + Core-binding factor subunit beta (Homo sapiens) (UniProt Q01196+Q13951). In words: inhibitors of RUNX1 Runt–CBFb-SMMHC binding, primary screen, biochemical, FRET, Cerulean-Runt, Venus-CBFb-SMMHC, uHTS (AID 1434).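 Further: 0% = DMSO wells and 100% = wells with excess untagged CBFb-SMMHC; inhibitors lower the FRET ratio by blocking Runt binding to CBFb-SMMHC.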 As to conditions: Cerulean-Runt/Venus-CBFb-SMMHC FRET ratio 530/480, 1 h; retest duplicate average; at 20 µM; stronger effect = higher value.
Chain of UniProt Q01196 (Q01196 whole entry, looked up): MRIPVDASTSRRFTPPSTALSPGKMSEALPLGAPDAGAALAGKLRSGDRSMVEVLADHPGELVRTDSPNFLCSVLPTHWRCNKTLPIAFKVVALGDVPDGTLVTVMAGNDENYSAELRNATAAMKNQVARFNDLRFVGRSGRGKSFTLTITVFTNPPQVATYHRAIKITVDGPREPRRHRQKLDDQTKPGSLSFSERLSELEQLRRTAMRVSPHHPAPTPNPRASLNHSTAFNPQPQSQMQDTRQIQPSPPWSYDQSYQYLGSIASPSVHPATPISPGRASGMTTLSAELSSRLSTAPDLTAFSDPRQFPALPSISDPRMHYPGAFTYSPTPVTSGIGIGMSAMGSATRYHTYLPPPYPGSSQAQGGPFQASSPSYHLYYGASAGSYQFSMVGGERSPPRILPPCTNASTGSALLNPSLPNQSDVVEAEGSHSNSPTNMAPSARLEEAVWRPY
Chain of UniProt Q01196 (Q13951 whole entry, looked up): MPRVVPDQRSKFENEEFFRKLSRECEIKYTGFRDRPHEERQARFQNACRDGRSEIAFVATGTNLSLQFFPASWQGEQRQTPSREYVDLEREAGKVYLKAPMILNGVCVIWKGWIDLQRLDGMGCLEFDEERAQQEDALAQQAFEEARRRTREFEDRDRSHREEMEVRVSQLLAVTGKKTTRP
Regarding `Cc1cccn2c(=O)c3cc(C(=O)NC(C)c4ccccc4)c(=N)n(CCCn4ccnc4)c3nc12` (stereo unspecified), the inhibition was 70.6%.

`COc1cccc(C=Nc2ccccc2C(=O)Nc2nccs2)c1OC`: the inhibition came to 70%.

In the case of `c1ccc(-c2nc(N3CCCCC3)nc3ccccc23)cc1`, the inhibition is 70.5%.

For the compound `COC(=O)C1=CN(C2CC2)C=C(C(=O)OC)C1c1ccc(C(F)(F)F)cc1`, the inhibition is 142%.

Turning to `Cn1c(NNC(=O)c2ccc(C(C)(C)C)cc2)cc(=O)n(C)c1=O`, the inhibition is 81%.

On to `C=CCn1c(=N)c(C(=O)NCCCOC)cc2c(=O)n3cccc(C)c3nc21`, for which the inhibition amounted to 72.9%.

Take `N=c1c(S(=O)(=O)c2ccccc2)cc2c(=O)n3ccccc3nc2n1Cc1ccco1`: the inhibition was 72.9%.

For the compound `O=C(O)c1ccc(N/N=C/c2ccc(-c3ccccc3Cl)o2)cc1`, the inhibition worked out at 98%.

As to `COCCCn1c(=NC(=O)c2ccc3c(c2)OCO3)c(C#N)cc2c(=O)n3cccc(C)c3nc21`, the inhibition was 185%.

Consider `C=CCOC(=O)C(C#N)c1nc2ccccc2nc1N1CCN(Cc2ccccc2)CC1` (stereo unspecified), for which the inhibition came to 85.4%.

As to `CCN1CC=C2C(C#N)=C(N)C(C#N)(C#N)[C@H](c3cccc(OC)c3OC)[C@H]2C1`, the inhibition worked out at 83.3%.

Consider `NC(=O)c1cc2ccc(O)cc2oc1=NCc1ccccc1`, for which the inhibition is 71.5%.

In the case of `CCN(CC)c1ccc(/C=C(\C#N)C(=O)NCc2ccco2)cc1`, the inhibition is 71.5%.

As to `COC(=O)Cc1c(C)c2cc(Cl)c(OC(=O)c3ccco3)cc2oc1=O`, the inhibition stood at 161%.

Regarding `COC(=O)C1=CN(Cc2ccc(OC)cc2)C=C(C(=O)OC)C1c1ccsc1`, the inhibition was found to be 139%.

For the compound `CN1Cc2c(N3CCOCC3)nc(SCc3ccccc3)c(C#N)c2CC1(C)C`, the inhibition was 72.9%.

On to `O=C(N/N=C/c1c(O)n(-c2ccc(Cl)cn2)c(=O)c2ccccc12)c1ccncc1`, for which the inhibition is 71.5%.

On to `O=C(O)c1cc(-c2ccc(/C=N/Nc3ccc(Cl)cc3)o2)ccc1Cl`, for which the inhibition was 55.9%.

For the compound `CC(=O)Nc1sc2c(c1-c1nc3ccccc3s1)CCN(C(C)C)C2`, the inhibition stood at 70.6%.

Turning to `Cc1cc(C(=O)CN2C(=O)c3cccc(N)c3C2=O)c(C)n1Cc1cccs1`, the inhibition was found to be 72.9%.

Take `CCOC(=O)C1=C(CSc2nc3c(cc2C#N)CN(C)CC3)OC(N)=C(C#N)C1c1ccncc1` (stereo unspecified): the inhibition is 67.2%.

For the compound `N#Cc1c2c(c(NCCOCCO)n3c1nc1ccccc13)CCCC2`, the inhibition stood at 68.4%.

As to `CCN1CCc2nc(NC(=O)c3ccc4c(c3)OCCO4)sc2C1`, the inhibition was determined as 112%.

With `CCOC(=O)c1cc2c(=O)n3ccccc3nc2n(CCOC)c1=NC(=O)c1c(-c2c(F)cccc2Cl)noc1C`, the inhibition was 76.7%.

For `O=C(NCc1ccco1)c1ccc2nc3sc4c(c3c(=O)n2c1)CCCC4`, the inhibition was 72.6%.

Turning to `N#Cc1cc2c(=O)n3ccccc3nc2n(Cc2ccco2)c1=NC(=O)c1ccco1`, the inhibition was 71.5%.

Consider `Cn1c(=O)c2nc3ccccc3nc2n(C)c1=O`, for which the inhibition was found to be 74.2%.

Regarding `O=c1oc2ccc3ccccc3c2c2c1SC(C(F)(F)F)C2` (stereo unspecified), the inhibition is 61.1%.

For `CC(C)c1[nH]nc2c1C1(CCN(Cc3ccccc3)CC1)C(C#N)=C(N)O2`, the inhibition was determined as 83.4%.

Regarding `CCOCCCn1c(=NC(=O)c2ccco2)c(C(=O)OCC)cc2c(=O)n3cccc(C)c3nc21`, the inhibition was 70.6%.

For the compound `O=C1C=CC(=O)N1N(c1ccccc1)c1ccccc1`, the inhibition was found to be 67.2%.

In the case of `Cc1ccc(C(=O)NCCn2c(N)c(C#N)c3nc4ccccc4nc32)cc1`, the inhibition is 71.6%.

On to `O=c1ccc2cc(O)c(O)cc2o1`, for which the inhibition stood at 71.5%.

As for `CCOC(=O)c1cc2c(=O)n3ccccc3nc2n(Cc2ccco2)c1=NC(=O)c1ccc(OC)cc1`, the inhibition was determined as 152%.

For `CCOC(=O)c1c2ccc(OCC(=O)NN)cc2n2ccccc12`, the inhibition was 70.6%.

For the compound `N#CC1(C#N)CC(C=O)=C(N)C1(C#N)CC(=O)c1ccc(F)cc1` (stereo unspecified), the inhibition amounted to 64.8%.

For the compound `CCCCn1c(NS(=O)(=O)c2ccccc2)c(S(=O)(=O)c2ccc(C)cc2)c2nc3ccccc3nc21`, the inhibition was 55.8%.

`CCOC(=O)/C(C#N)=C1/C=C(C)c2ccccc2N1`: the inhibition was found to be 98.2%.

With `Cc1c(Cc2ccccc2)c(NCCN(C)C)n2c(nc3ccccc32)c1C#N`, the inhibition was 63.6%.

On to `Cn1c(=O)nc2n(Cc3ccccc3)c3cccc(Cl)c3cc-2c1=O`, for which the inhibition worked out at 71.5%.

With `CCOC(=O)/C(=C/c1ccc(N2CCC(c3ccccc3)=N2)cc1)C(C)=O`, the inhibition stood at 71.5%.

Turning to `COc1ccc(N2C3=C(C(=O)CC(C)(C)C3)C(c3ccccc3OC)C3=C2CC(C)(C)CC3=O)cc1`, the inhibition is 70.6%.

For the compound `CCOC(=O)C1=CN(C)C=C(C(=O)OCC)C1c1ccsc1`, the inhibition was determined as 125%.

Consider `Clc1ccc(-c2nc(N3CCCCC3)nc3ccccc23)cc1`, for which the inhibition was 61.9%.

Consider `CC(=O)c1ccc(/C=C/c2nc3ccccc3n2C)o1`, for which the inhibition was found to be 70.6%.

In the case of `Cc1cc(=O)oc2c3c4c(cc12)OCCN4CCC3`, the inhibition was 79.4%.

In the case of `COC(=O)C(C)n1nnc2sc(-c3ccccc3)cc2c1=O` (stereo unspecified), the inhibition amounted to 143%.

For `COc1ccc(C2C3=C(CC(C)(C)CC3=O)Nc3c2c(=O)n(C)c(=O)n3C)cc1OC` (stereo unspecified), the inhibition was 118%.

Take `CC(=O)Oc1cc2oc(=O)cc(C)c2cc1Cl`: the inhibition stood at 121%.

Take `CCN(CC)c1ccc2cc(-c3nnc(-c4ccncc4)o3)c(=O)oc2c1`: the inhibition was 71.5%.

Take `CC(=O)N1c2ccccc2C2(O)N=C(C)SC12` (stereo unspecified): the inhibition came out at 52.2%.

`N=c1c(C(=O)NCc2ccc(F)cc2)cc2c(=O)n3ccccc3nc2n1Cc1cccnc1`: the inhibition is 72.9%.

Take `CCOCCCNC(=S)N1CCCN(c2nc3cc(C)ccc3cc2C#N)CC1`: the inhibition came out at 95.5%.

On to `N#Cc1c(NC(=O)c2ccc(Br)o2)n(-c2ccccc2)c2nc3ccccc3nc12`, for which the inhibition is 70.6%.

Turning to `CCOc1ccccc1N=c1oc2cc(O)ccc2cc1C(=O)NCC1CCCO1` (stereo unspecified), the inhibition turned out to be 72.9%.

As to `CCCCn1c(=O)nc2n(-c3ccccc3)c3ccccc3cc-2c1=O`, the inhibition worked out at 72.9%.

With `CCSc1sccc1C1C(C#N)=C(N)N(c2cccnc2)C2=C1C(=O)CCC2` (stereo unspecified), the inhibition stood at 74.9%.

For the compound `CC(C)c1cc(N2CCN(C(=O)c3ccco3)CC2)n2c(nc3ccccc32)c1C#N`, the inhibition was determined as 53.5%.

Turning to `Cc1cc2n(n1)C(c1ccc(N(C)C)cc1)Nc1ccccc1-2` (stereo unspecified), the inhibition is 53.1%.

For `O=C(CN1CCN(c2ccc(O)cc2)CC1)NC(c1ccccc1)c1ccccc1`, the inhibition was determined as 5.1%.

Regarding `CCCCn1c(=NC(=O)c2ccco2)c(C(=O)OCC)cc2c(=O)n3cccc(C)c3nc21`, the inhibition is 70.6%.

For `COc1ccc2nc(N3CCC(O)CC3)c(C#N)cc2c1`, the inhibition came out at 81.9%.

With `Cc1cccn2c(=O)c3cc(C(=O)NCc4ccco4)c(=N)n(C(C)C)c3nc12`, the inhibition came to 72.9%.

With `CCc1c(C)c(C#N)c2[nH]c3ccccc3n2c1=S`, the inhibition amounted to 157%.

Regarding `N#Cc1c(NC(=O)c2ccccc2Cl)n(Cc2ccccc2)c2nc3ccccc3nc12`, the inhibition stood at 118%.

`CCOc1ccccc1C1C(C#N)=C(N)Oc2cc(N)ccc21` (stereo unspecified): the inhibition worked out at 94.8%.

By inhibition is commonly meant the relative decrease from the control value, in per cent.
